This is one part of the list.
T1: UNK ZnF1-3 (human, UniProt Q9C0B0 31-174)
T1 sequence: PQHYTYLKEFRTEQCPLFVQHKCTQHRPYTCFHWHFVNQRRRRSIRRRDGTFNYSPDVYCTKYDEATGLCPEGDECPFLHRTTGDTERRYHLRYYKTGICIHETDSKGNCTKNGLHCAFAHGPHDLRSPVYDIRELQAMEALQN

B1: 243727048_243736245_1062_CDS_ENSG00000117020_ENST00000366539|human|control|control (ssRNA)
RNA: GGGAGUUCUACAGUCCGACGAUCACAGAAUGUCUUCAUGGUGGCUGCAUCUGUGAUCCCUUCUUUGCAAAGUCCAAAAUCUGUAAUUUUUAUGUGGCCAUCUUUGUCCAGCAUUAGAUUCUCCAACUUGAGAUCACGGUACACCAACAGAGGAUUGAGCAUCA
B2: chr3:145257603:145257604:+_ENSMUSG00000074182_ENSMUST00000098534|mus_hu|motif|central (ssRNA)
RNA: GGGAGUUCUACAGUCCGACGAUCAUCAAUGUAAGGUUUUAGGAUUUCAUUAAUAGUUUUAUCAUCUGGUACUCUUUUUUCGGUGUACUCAGCUUGACUUUGAGGAAACUGGAGCUUCACAUGCCAACAAAACUGUUGUUUUUUCAACAGAGGAUUGAGCAUCA
B3: chr2:48782750:48782751:-_ENSMUSG00000026761_ENSMUST00000141441|mus_mus|motif|central (ssRNA)
RNA: GGGAGUUCUACAGUCCGACGAUCUUUUUCUGAUGAGCAAAAAUAUCAAAUUCAUCCAGUAUGAAGAUCACUGGGCAACUGCGGGUCCGGUCACCUUUUUGCAAAGCUUCCAGAAGAAAUGAAAGGUUUUCAGCAAAGCUUCCACAACAGAGGAUUGAGCAUCA
B4: chr7:149068622:149068623:-_ENSMUSG00000025139_ENSMUST00000001950|mus_hu|mus_mus_mus_hu_False|38_88 (ssRNA)
RNA: GGGAGUUCUACAGUCCGACGAUCGUGAGGCCUCUGAGUGUGGCUUGUGCUCUGCAGUGGGUUAGAGUUGUUAAUAUCACGGAACAUACCAUCUAGAGAGGUUCUGCCCCGCCUGACACCUUCAUUCCCAAUGGAGAAGAAAUCCAACAGAGGAUUGAGCAUCA
B5: chr10:7368923:7368924:-_ENSMUSG00000019795_ENSMUST00000163085|mus_mus|FALSE|FALSE (ssRNA)
RNA: GGGAGUUCUACAGUCCGACGAUCCAUGUAAGGGUUAGAUUUUGCAUAGUGGGAACGGUCUGUAGCCAGCAUCACUUCAAAUACUUUAUCUGUCUUGAUGAUUCCAUUCUUGCGGAGGUUGUGGAUUAGCUCCGAGUGGCUGGCCAACAGAGGAUUGAGCAUCA
B6: chr4:108167797:108167798:+_ENSMUSG00000034610_ENSMUST00000043368|mus_hu|FALSE|FALSE (ssRNA)
RNA: GGGAGUUCUACAGUCCGACGAUCCUCCACAAUUUCCUGACGGACUCUGAGGUCAUCAUCUGUUAUUCCAUGUUCUUUUGCUAAUUCAAUGACUGCAACACUUAAAGCAGCCAAGUGGGCAGGGGAAGGAGGUGGCAGAGAACGCAACAGAGGAUUGAGCAUCA
B7: chr11:100581416:100581417:-_ENSMUSG00000019173_ENSMUST00000107364|mus_hu|FALSE|FALSE (ssRNA)
RNA: GGGAGUUCUACAGUCCGACGAUCCCCGCCAUUGCCCGUCCAGCUGUAGUGGUCCAGAGAGCGUGCGGGUGGGGACUGGUGCUAUGCAAAGAGGCACUUAGUGGGGAGGGGGACCUCCAAGGCGGCUCCGGGGCGGCGGCGUUACAACAGAGGAUUGAGCAUCA
B8: 102342291_102344465_4559_CDS_ENSMUSG00000043940_ENSMUST00000053177|mouse|control|control (ssRNA)
RNA: GGGAGUUCUACAGUCCGACGAUCGGAAAUGCCUAACUGCUUCGCAAUGGCUUUGCUGUCUAACUUGUUGUAGACUUUCCGGAUUCUUGCCACUGUUAGGGAGGACACGGACAGAGCGUAGAGUCCAAAGGACACCUUUUCCUCCAACAGAGGAUUGAGCAUCA
B9: chr1:36558744:36558745:+_ENSG00000116863_ENST00000373178|hu_hu|motif|central (ssRNA)
RNA: GGGAGUUCUACAGUCCGACGAUCAAUGGUGUCUGUGUCCCCACCAAGUGAGAUGGAAUAAAUGAGAGUCCUUUGGAGGCGGUUGAAGGCAGAAGGGAUCUCAGGGUCUGGCUCCAUGCAGCGUAGGAAGCAGUAGAUGGCGGUCAACAGAGGAUUGAGCAUCA
B10: chr3:176767854:176767855:-_ENSG00000177565_ENST00000430069|hu_hu|hu_hu_hu_mus_False|18_18 (ssRNA)
RNA: GGGAGUUCUACAGUCCGACGAUCGACAUCCUUGUUACUGGGCACGUCCUGCCCUCCUUCCCGUAUGCAGUGUCUAAGCACGAGCUGCGUAGGGCCACUCGUGCUGUUCUCACUGAGAUUCCAUAUUCUUGCCGUGGAGUCUCCCAACAGAGGAUUGAGCAUCA
B11: chr18:35731670:35731671:+_ENSMUSG00000037236_ENSMUST00000166793|perfect_dup|FALSE|FALSE (ssRNA)
RNA: GGGAGUUCUACAGUCCGACGAUCUGACCCUGUGAAUCCCUACCGAGAGAUGACUGCUGGAAUGACUUGGACAUUGUAGAACUAUCUCUUGUCUAUUUUAUAGAUCAAAAAAAAAAAAAAAAGUUUUAAAAGAUGGCCAAAAAGCAACAGAGGAUUGAGCAUCA
B12: chr2:217001844:217001845:+_ENSG00000079246_ENST00000392132|hu_hu|hu_hu_hu_mus_False|68_108 (ssRNA)
RNA: GGGAGUUCUACAGUCCGACGAUCACCGACUUGAGGAUUAGAUCUUUUGUCAUAAGCAUAUCGGACGAUGGCCACCAUGUUUAACUCAUCCAAAGCAUGAACGAGAGAGGAAAGGGCAACAGCUGCCGCCUCAUCAUCCUUUGCCAACAGAGGAUUGAGCAUCA
B13: chr5:17772112:17772113:-_ENSMUSG00000057614_ENSMUST00000074694|mus_hu|motif|central (ssRNA)
RNA: GGGAGUUCUACAGUCCGACGAUCGUAUAUCCUCAGAAAUCUGAAAUUUUAGUUUUUCAAACCAAAUCUAACGUGGAAUCGGAUGUAAAAUUAAAUUAUUUUAUUUUCUUAAAGUAGGAAAAAUCAAAAUGCAUACAAUGUUUACAACAGAGGAUUGAGCAUCA
B14: chr14:90871172:90871173:+_ENSG00000198668_ENST00000553542|hu_hu|motif|central (ssRNA)
RNA: GGGAGUUCUACAGUCCGACGAUCAAUACAUGCAGAUUUUGUGUGUGUGGACAGAAGGUACUUUUGACAUUCAGUUUUGCGGUAUAGAAACAGAAUGAAUAAAUGAACUUUUUUCUUUUUUCUUUUUUUUGCAAGAGGUAAGUACAACAGAGGAUUGAGCAUCA
B15: chr13:6597965:6597966:-_ENSMUSG00000021196_ENSMUST00000144053|mus_mus|FALSE|FALSE (ssRNA)
RNA: GGGAGUUCUACAGUCCGACGAUCUCAUUCUCUCAUAUUACCACUGGCUCAAAUCCUCCAAUGAUCAGAAGGGCAUUGAUACUAUGGGAAUGCAUCUGCUCUGCGAUCUUCUCCAAGUACUUUCCAGGUAGGGUGCGUUUUGUCCAACAGAGGAUUGAGCAUCA
B16: chr4:148551591:148551592:-_ENSMUSG00000063077_ENSMUST00000060537|mus_hu|mus_mus_mus_hu_False|1_78 (ssRNA)
RNA: GGGAGUUCUACAGUCCGACGAUCACCUGACAAAAUUAAAUAUCCCUGUAAAUUAGACAAGAAGCAGCAGGCAACAAAGUCUUUGCUUUGGAAUAUGUGCCAGGAAAAGUCAUCUUGUUUUUAGAUCUCAAGAGACACAACCAUCAACAGAGGAUUGAGCAUCA
B17: chr1:109605286:109605287:-_ENSG00000197780_ENST00000461096|hu_mus|hu_hu_hu_mus_True|1_58 (ssRNA)
RNA: GGGAGUUCUACAGUCCGACGAUCAAGUUUCAGAGUAACAUUCAGUAACCUCUUUAAAUGCAAUUAUCCUUAUUAUAAACUAAGGGCAAUAAUAAUUUAAUACCGUAAGUGAACUACACACAAAGCCUGAACCGCGAAACUACACAACAGAGGAUUGAGCAUCA
B18: 129742970_129743738_2615_CDS_ENSG00000170322_ENST00000446488|human|control|control (ssRNA)
RNA: GGGAGUUCUACAGUCCGACGAUCGGGCACAGUGGCCAUUACUGUCUGGGGCACUACUUUGGUCUGUGUGGCAGUGGCUGGAACCCGGAUCUGCGGUCCUGCUGGCAUCUGUGGCAAUGUCUGUGCCGGCCCUCCCGACUGCUGCAACAGAGGAUUGAGCAUCA
B19: 58477262_58477382_1138_ncRNA_ENSMUSG00000026034_ENSMUST00000129577|mouse|control|control (ssRNA)
RNA: GGGAGUUCUACAGUCCGACGAUCCAAGGAACAGAUUUUCAGAUAAGAUACUCAAAGUGGUAAGUCAACAAAACAUAAACACAUUUGCUUUUCUUCUUAAAAAACAAAACAAAACUUAUCUGUGGCAUUCACUCAAACAUAGUGCAACAGAGGAUUGAGCAUCA
B20: 26880008_26881670_611_3pUTR_ENSMUSG00000037316_ENSMUST00000038498|mouse|control|control (ssRNA)
RNA: GGGAGUUCUACAGUCCGACGAUCCUGUGAAGCAGGAUAUCCUGGCACCUGUCCCCUCAGAGGAGGUGCUUCUGUUGGACAGUCCUGCUGGGAAUACAUCCAACGAGACAUUGGAGUUGGGCUGUUACCAGGUGAACGGUAGGUCAACAGAGGAUUGAGCAUCA
B21: chr2:216981417:216981418:+_ENSG00000079246_ENST00000392132|hu_hu|hu_hu_hu_mus_True|88_88 (ssRNA)
RNA: GGGAGUUCUACAGUCCGACGAUCCUGAUACUGGUCCUUGCCAGCAAGGGGAUUGUCAGUGCCAUCUGUGCCAUAGAGGACUAACGCAAUCUCAUCUUUGCUCUCCGAAAAUACCUGUCGUUGGACAAACAUAGUCAUCACUUUCAACAGAGGAUUGAGCAUCA
B22: chr8:100899844:100899845:-_ENSG00000164919_ENST00000517682|hu_mus|FALSE|FALSE (ssRNA)
RNA: GGGAGUUCUACAGUCCGACGAUCUGGCUCAGCCACGCCAAACUUAUAGGCAGCGGCAACUCCCAGGGCCACAAUGAAUGCGCCAGCAAUAUGAACCCGCAGACGCUUGGCCAGAAGACCACGCAUCUGUGGUUUGGGCAACAGCAACAGAGGAUUGAGCAUCA

The binders below were run against T1, UNK ZnF1-3 (assay: nsRBNS (natural sequence RNA bind-n-seq); RBNS binding buffer (assumed for nsRBNS): 25 mM Tris pH 7.5, 150 mM KCl, 3 mM MgCl2, 0.01% Triton X-100, 500 ug/ml BSA, 20 U/ml SUPERase-In, 4 C; UNK is unkempt and MSI1 is Musashi-1; names of the RNAs are library labels; protein concentration not given here; high values mean tight binding).
With B1 the binding signal was 0.817 enrichment R.
With B2 the binding signal was 0.475 enrichment R.
Work on B3 yielded a binding signal of 1.29 enrichment R.
With B4 the binding signal was 0.752 enrichment R.
For B5, the binding signal was 0.897 enrichment R.
Work on B6 yielded a binding signal of 1.31 enrichment R.
B7 showed a binding signal of 1.31 enrichment R.
B8 showed a binding signal of 0.721 enrichment R.
In the case of B9, the binding signal is reported as 1.56 enrichment R.
In the case of B10, the binding signal is reported as 0.349 enrichment R.
In the case of B11, the binding signal is reported as 2.84 enrichment R.
For B12, the binding signal was 2.01 enrichment R.
B13 gave a binding signal of 1.76 enrichment R.
With B14 the binding signal was 1.08 enrichment R.
B15 gave a binding signal of 0.746 enrichment R.
Binder B16 has a binding signal of 1.61 enrichment R.
B17 was tested, and the binding signal was 0.706 enrichment R.
B18 gave a binding signal of 0.934 enrichment R.
Binder B19 has a binding signal of 0.941 enrichment R.
In the case of B20, the binding signal is reported as 0.593 enrichment R.
Work on B21 yielded a binding signal of 1.15 enrichment R.
With B22 the binding signal was 0.899 enrichment R.

Reference: paper PMC12136788
